Test results as given in article PMC10668032.
Some of the results follow. At the low end of the ranking the order means little.

These sequences were tested against SIX1-Q177R homeodomain (UniProt Q15475) (assay: universal protein binding microarray). Conditions: Universal all-10-mer PBM (8x60K, AMADID 030236), 300 nM GST-tagged protein, Alexa Fluor 488 anti-GST; buffer, salt, pH and temperature not stated; high values mean tight binding; most listed sequences are background and not binding sites; double strand, one strand shown.

Sequence | binding signal [E-score]
GGCCCCCA | -0.11
ATCTGCAC | 0.0165
CGCTGGTC | 0.0211
GCCGCCGC | -0.219
CCGGGATC | 0.164
CCGGATGC | -0.00094
CATTACCA | -0.00976
CGTGCCGA | 0.0313
GTAGTAGA | 0.0222
GAACGAGA | -0.222
GCGTTGAA | 0.00428
ATAATATA | -0.0123
CGTCAATA | -0.141
GAGCAGTA | -0.16
ACAAGGGG | 0.185
GCAGAGGA | -0.0276
CCCGGTGA | -0.0127
AGGACCCC | 0.205
GAGACTGA | -0.316
AAGTCCGG | -0.157
ACCATCGA | 0.0401
ATAAAATG | -0.126
GGGGCGAC | -0.0502
CCGAAAAA | -0.0149
ACACTTGG | 0.329

Sequence | binding signal [E-score]
GGCACATA | -0.0815
ACGGCGTC | -0.0211
AAATCGAG | -0.034
ATTGCTTC | 0.0173
AACACTTC | 0.326
ATTTACCA | -0.0462
ACTAAATG | 0.0262
AACACCAA | 0.467
GAATAAGC | -0.0672
ACTTAAGT | -0.214
AGTCACTA | 0.0997
GGGGTAAA | 0.29
CTCTGCAG | -0.163
ATCAAGGC | 0.0359
ACTTGTAA | -0.0445
CACGGTGC | 0.267
CGCGAGGC | -0.0994
TAAAACGA | -0.132
CAGACTCG | -0.0491
CGGAAATC | -0.133
TATCCGCA | 0.0207
CAAATGTC | -0.0522
AGTCTTAG | -0.0444
AGGTGAAA | -0.221
CTTGAGAA | -0.22

Sequence | binding signal [E-score]
AGACCAGG | -0.121
TCGCCGCA | -0.0235
AACCCATC | -0.201
AACTGGTA | 0.0649
CCCAAAGC | -0.00129
ATACGAAG | -0.187
TCGGGTCA | 0.197
AACTCGTA | -0.146
CAGTTTAC | 0.00233
CGTCTTAA | -0.0921
GATGGACC | -0.026
CGACGCTC | -0.206
CCATAAAC | -0.0639
CCAGACGC | 0.00929
AATGGGCG | -0.0109
GCGCACGC | 0.0592
AATGGCGA | 0.0184
TCTGGAAA | -0.0321
AACCATGG | -0.14
CACGTATC | 0.217
AACTTCTT | -0.047
CACCTGAG | 0.183
ACGTTAAC | -0.0185
ACATGAAT | -0.0461
ACAAATAG | -0.0901

Sequence | binding signal [E-score]
ATGTCGAA | -0.0169
CGGACCCA | 0.0716
ACATCACG | -0.221
GCTACGGA | -0.0581
AACTTGCC | -0.185
AGTCGTCA | -0.118
GAGATCAA | -0.0475
CCTTACTA | -0.0604
CATCGGAC | -0.041
ATTGCGCC | -0.244
TCAAGTGA | -0.128
AGCCGAAT | -0.0686
CATCGAGA | -0.271
AAATACGA | -0.00287
ACACAATC | 0.178
ACGAGCTC | -0.0655
AGACGATG | -0.232
AAGGTGGA | 0.102
CATGGGTA | 0.143
ATAGGCAT | -0.256
AGGATCAT | 0.085
AACAAATC | -0.0836
CAACAATC | 0.00184
AATACTAC | -0.117
TACGGGCA | 0.0181

Sequence | binding signal [E-score]
GCCTCTAA | -0.0175
AAAGGGCC | -0.0926
CCGACGGC | -0.0384
AGCATATG | -0.281
CCTGTACA | 0.119
ATCTTAAG | -0.298
AATGCGCT | -0.0244
GTAAGAAA | 0.155
AGGCATAA | -0.0618
TAATAGTA | 0.0571
CCAACGGG | -0.0798
AAATTAAC | -0.0677
GTGCTTCA | 0.0606
AGTGACTG | -0.124
ATGCGCAG | -0.152
ACCCTCAA | 0.133
CGCTGGAA | -0.201
AAGTTATG | -0.29
CTTTCGAC | -0.171
CGAGGAAG | -0.0847
GTAAAGAA | -0.105
CATATAAC | 0.0553
AACGGCTA | -0.284
CCGCAGAG | -0.0683
AAACCAGC | -0.233

Sequence | binding signal [E-score]
CAGCTAAA | -0.0488
GGGAAACA | 0.0993
TCCAGCCA | -0.157
ACGATCAA | -0.149
TACGGTGA | -0.147
AGTTTCCA | -0.176
TCAAGCCA | -0.126
CAATGGAG | 0.0176
ATAACAAG | -0.00902
AGTCCACA | -0.046
AGACGTAC | -0.195
ACCCGCCA | 0.152
GGTTGCGA | -0.145
ACGCGGAC | -0.11
AACACGCC | 0.366
AGCCCGCT | -0.175
GGCTTCTA | -0.0766
GATATATA | -0.126
GTATTGGA | -0.169
ACGCGGTA | 0.0643
CGGCAAGC | -0.0169
TGACCCAA | 0.0802
ACTAATCG | 0.119
CTGTTTCC | -0.155
AGCGCGTA | -0.222

Sequence | binding signal [E-score]
CCGGTAAA | 0.104
CGATAAAG | -0.171
CCCTGGAC | 0.0864
CGATCAGC | -0.257
CAAGCAAA | -0.191
AATACGCT | -0.115
CGGCCTAG | -0.24
CGAGTCAA | 0.11
CCGGGAGA | -0.00114
GGTCCGCA | -0.00696
AACAGTGA | -0.0313
CAGTTCGA | 0.106
ATCAGCTG | -0.079
ACCTAGCT | 0.111
CACAGGTA | 0.104
CGCCAACC | -0.00498
GACTGGCC | -0.349
AATGGCAC | -0.0128
TATGTGAA | -0.145
ACAAGGTA | -0.0204
AATCCAAG | -0.0903
CGGACAAG | -0.073
CCTGAAAG | -0.0646
GCTCGTCC | -0.0703
CCTTTGAC | 0.00515

Sequence | binding signal [E-score]
AGGGAGGC | -0.155
GAGGCACC | -0.0594
CTTGCCCC | -0.0502
ACTCCTAC | 0.112
AACTGCTC | -0.0213
ACGGAATA | 0.046
GAAAGCCA | -0.27
CCGACACC | 0.488
CCGCGATC | 0.081
TAAGCCGA | -0.243
CAGGGCTA | 0.00664
CGGGTACC | 0.16
ACAATCAG | -0.0314
CGAGTATC | 0.158
CTATCGTC | -0.0769
ATTATATA | -0.0523
ACGCAACG | 0.0798
TGCTTTAA | -0.0642
GGCCTGAC | -0.0129
ACACGCTG | 0.389
CTATACAA | -0.0949
AATCGCCG | 0.0517
GACCAATA | 0.00786
TTGTTAAA | -0.148
ACCGTAAC | -0.036

Sequence | binding signal [E-score]
ACGGATGA | 0.0644
AACGCTGA | -0.197
AAAACAAC | -0.179
AATAGTTA | -0.239
AATATGGA | 0.0496
ATGTTCAG | -0.0871
ACTCCACA | 0.206
ATCTAGTA | -0.176
CAGTTCGG | -0.0965
CCCGTGAA | -0.136
AAGGATAA | 0.0209
CGATGCCG | -0.164
CCACGTAG | -0.255
ACCTTCCG | 0.0859
ATCAAGTC | -0.1
CTAGTCAC | 0.19
AACTCGCC | 0.0208
CGTTATTC | -0.117
ATCTACGA | -0.0518
CCAATACG | -0.0027
CTCGACCC | 0.182
AGATCCTC | -0.121
TATAGTGA | 0.0497
CGCCAACG | -0.176
TCGATGAA | -0.0239

Sequence | binding signal [E-score]
CGTTCAGC | -0.0699
CGATCTTA | -0.0073
ACGTAAAA | -0.213
CTGGCAAG | -0.262
AGATCATC | 0.0817
AACGGCAC | 0.0138
AGCCGCTC | -0.028
CGCTCGAA | -0.208
GATCCGAA | 0.00303
AAGCACCC | 0.244
AGAGTTTA | -0.0605
CTAATCGA | -0.144
AACTACCC | 0.151
TCAATACA | 0.212
ACAGAACT | -0.168
GCCGAGTA | -0.0605
ATGCTACC | 0.0295
CGTTGCCA | -0.0156
CTTCCCCA | -0.0323
AAGGTTCG | -0.0568
AAGTCCGT | -0.104
AGAGGATC | 0.0631
ACTCTATG | 0.0352
GGCGGGGA | 0.0148
GATGTTAA | -0.0502

Sequence | binding signal [E-score]
CGAGGCCA | -0.109
CAAAAGAG | -0.0613
CGTATTAC | 0.0844
GTGCGGTA | 0.119
AAGTACAT | -0.0131
GAAACAAA | -0.312
TAATCCTA | -0.075
TACGTAGA | -0.184
AGGAACAG | -0.0352
GACCTCTA | -0.313
AACGGTCC | -0.34
CGACGGCA | 0.127
GGGCTTCA | -0.176
GGTAGAAA | -0.067
CAGCACCA | 0.182
AGGAATAT | -0.185
AAACATAG | -0.249
TTTTAAAA | -0.113
CACATTCA | -0.228
ACGTTTCG | 0.0722
TAACCTAA | -0.0395
ATTCGCGG | -0.0116
ATGAACGA | -0.143
TCCCGACA | 0.155
CTACGTCA | 0.0203

Sequence | binding signal [E-score]
TCCGAGGA | 0.0582
CCATCTAC | -0.0891
GAGCGTAA | -0.157
ACTAGGGA | 0.18
ACGTTTAG | 0.0741
AACCGGCC | -0.203
AAACCCCT | 0.178
AGTCCGTC | -0.087
CTCAGTGC | 0.0617
CTGAGCCC | -0.0399
ATAAACGA | -0.13
AAGGTTAT | -0.124
ATGAACTC | 0.0152
ATGCCACA | 0.0994
ATCAGGAT | -0.0625
CAAACTAG | 0.152
CAGGTTTC | -0.0409
CACCTACG | 0.232
CACATGAG | -0.0336
ACCGCGTA | 0.15
CATTATTA | -0.152
GAAAGGTC | -0.0115
CTGGGGCC | 0.0347
GGAACACA | 0.189
AAGCAAAA | -0.288

Sequence | binding signal [E-score]
AAATTGGC | -0.0777
CATCTGTA | -0.209
CGGGGACC | -0.0914
ATATCGCA | -0.0787
GGTCTTGA | 0.0751
GATACAAA | -0.0291
ATTCGTGC | -0.163
CACCGCTA | 0.12
AATCTCTA | -0.232
CCCTATAC | 0.122
GACAAATA | -0.192
CTATCTGC | -0.145
AAGGATAT | -0.101
ACTTTGCC | -0.342
ACGCTATA | -0.149
AGTACTTA | -0.167
AGCCTCCG | -0.114
AGCGAACA | 0.00511
GTCTGAGA | -0.055
CGAAAGGC | -0.173
AAATGAAC | -0.0761
AAGTGTCA | 0.418
GTCAGGTA | 0.0967
ATTGAAGA | -0.154
ACAAAAGT | -0.287

Sequence | binding signal [E-score]
CCCACAGC | 0.144
ACATAAGC | -0.173
AGTCACAC | 0.326
CGATCATC | -0.128
AGATGTGC | -0.208
ATTCCTCG | -0.0536
GCATTTAC | -0.0427
CGCTATAG | 0.00779
CTACTCGC | 0.0269
AACCTGCA | -0.131
CGAAGCAC | 0.0809
CACCAGTA | 0.272
CGGCCTCA | -0.174
AAGGTAGT | 0.0872
ACCAGTTA | 0.11
GAGGTTCA | -0.045
CCCTATAG | -0.132
GACTTACA | 0.041
TAATAATA | -0.0808
